Measured values: the supplement of paper PMC9446081
Among all 39,000 compounds or so, about 220 (0.56%) showed activity. This is one part of the list.

Tested on: Escherichia coli K-12 BW25113
Assay: relative growth (OD600 normalised to plate interquartile mean) (fraction); higher = less growth inhibition, active = 0.2 or less
Conditions: 50 µM; LB; incubation time: overnight (16-24 h)
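Note: static incubation at 37 °C against the wild-type strain, values averaged over two biological replicates.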

SMILES | relative growth
C[C@@H]1CN([C@@H](C)CO)C(=O)Cc2cc(NC(=O)c3ccncc3)ccc2O[C@@H]1CN(C)S(=O)(=O)c1cn(C)cn1 | inactive: 0.975
C[C@H](CO)N1C[C@H](C)[C@@H](CN(C)C(=O)Nc2ccc(C(F)(F)F)cc2)Oc2ncc(-c3ccc(C#N)cc3)cc2C1=O | inactive: 0.999
CC(C)NC(=O)N(C)C[C@H]1Oc2ccc(NC(=O)Cn3cnnn3)cc2C(=O)N([C@@H](C)CO)C[C@H]1C | inactive: 0.996
C[C@@H]1CN([C@H](C)CO)C(=O)Cc2cc(NC(=O)Nc3ccc(C(F)(F)F)cc3)ccc2O[C@H]1CN(C)Cc1ccc2c(c1)OCO2 | inactive: 1.01
CC(=O)c1ccc(S(=O)(=O)N2[C@@H]3CC[C@@H](C3)[C@H]2c2nc3cccc(OCc4ccccc4)c3[nH]2)cc1 | inactive: 1.03
COc1ccc2c3c(n(c2c1)C)[C@@H](CO)N(C[C@]13CCN(CC1)Cc1ccccc1F)C(=O)Nc1ccc(cc1)F | inactive: 1.01
CNC(=O)C[C@H]1CC[C@@H]2[C@H](COC[C@H](O)CN2C(=O)c2ccccn2)O1 | inactive: 1
O=C(CN1CCOCC1)NCC[C@H]1CC[C@@H](NC(=O)c2ccccc2F)[C@H](CO)O1 | inactive: 1.02
C[C@@H]1CCCCO[C@@H](CN(C)Cc2ccncc2)[C@H](C)CN([C@@H](C)CO)C(=O)c2cc(NC(=O)CCC(F)(F)F)ccc2O1 | inactive: 1.09
C[C@@H]1CN([C@@H](C)CO)C(=O)c2cc(NS(=O)(=O)c3ccccc3)ccc2O[C@@H]1CN(C)CC1CC1 | inactive: 1.03
CCOC(=O)c1cc2c(=O)n(C)c(=O)n(C)c2[nH]c1=O | inactive: 1
CC(=O)C1(O)CCC2C3CC(C)C4=CC(=O)C=CC4(C)C3(F)C(O)CC21C (configuration not stated) | inactive: 1.08
C[C@H](CO)N1C[C@H](C)[C@H](CN(C)Cc2ccc(C(=O)O)cc2)Oc2ccc(NC(=O)Cn3cnnn3)cc2C1=O | inactive: 0.998
C=CC(=O)Nc1ccccc1[C@@H](CCc1ccc(OC)c(OC)c1)OC(=O)[C@@H]1CCCCN1C(=O)C(=O)C(C)(C)CC | inactive: 1.02
CN(C)CCCNC(=O)C[C@@H]1CC[C@H]2[C@@H](COC[C@H](O)CN2S(=O)(=O)c2ccccc2)O1 | inactive: 1.02
COc1ccc2c3c(n(c2c1)C)[C@H](CO)N(C[C@]13CCN(CC1)C(=O)c1ccccc1F)C(=O)Nc1ccccc1F | inactive: 0.987
C[C@@H]1CN([C@H](C)CO)C(=O)c2cc(NS(=O)(=O)c3ccc(Cl)cc3)ccc2O[C@@H](C)CCCCO[C@H]1CN(C)C(=O)Nc1ccc2c(c1)OCO2 | inactive: 0.985
CN(C)CCCNC(=O)C[C@H]1CC[C@@H]2[C@@H](COc3ccc(NC(=O)c4ccccc4F)cc3C(=O)N2C)O1 | inactive: 1.01
C[C@H](CO)N1C[C@H](C)[C@H](CN(C)C(=O)Nc2cccc3ccccc23)Oc2ccc(NC(=O)C3CCCCC3)cc2CC1=O | inactive: 0.994

SMILES | relative growth
C[C@@H]1CCCCO[C@@H](CN(C)C(=O)C2CCCCC2)[C@H](C)CN([C@@H](C)CO)C(=O)c2cc(NC(=O)C3CCCCC3)ccc2O1 | inactive: 0.99
Nc1ncnc2c1ncn2[C@H]1CCCO1 | inactive: 1
NC(=O)[C@@]1(CCS(=O)(=O)c2ccccc2)N=C(c2ccc(OCCCO)cc2)O[C@H]1c1ccccc1 | inactive: 0.996
C[C@@H]1CN([C@H](C)CO)C(=O)c2cccc(NC(=O)Nc3ccc(C(F)(F)F)cc3)c2O[C@@H]1CN(C)Cc1ccc(Cl)c(Cl)c1 | inactive: 1.03
C[C@H]1CCCCO[C@H](CN(C)Cc2ccc(C(F)(F)F)cc2)[C@@H](C)CN([C@@H](C)CO)C(=O)c2cc(NC(=O)Nc3ccc(C(F)(F)F)cc3)ccc2O1 | inactive: 0.987
C[C@@H]1CCCCO[C@@H](CN(C)Cc2ccc(C(=O)O)cc2)[C@H](C)CN([C@@H](C)CO)C(=O)c2cc(NS(=O)(=O)c3ccc(Cl)cc3)ccc2O1 | inactive: 1.01
Cc1noc(C)c1S(=O)(=O)N(C)C[C@H]1OCCCC[C@H](C)Oc2ccc(N(C)C)cc2C(=O)N([C@@H](C)CO)C[C@@H]1C | inactive: 0.926
COc1ccc(S(=O)(=O)N2C[C@@H](O)COC[C@H]3O[C@@H](CC(=O)NCCCN4CCOCC4)CC[C@@H]32)cc1 | inactive: 1.04
COc1ccc(NC(=O)Nc2ccc3c(c2)C(=O)N([C@H](C)CO)C[C@@H](C)[C@H](CN(C)C(=O)Nc2ccc(C(F)(F)F)cc2)OCCCC[C@@H](C)O3)cc1 | inactive: 1.07
C[C@@H]1CCCCO[C@@H](CN(C)C(=O)CCC(F)(F)F)[C@H](C)CN([C@@H](C)CO)C(=O)c2cc(NC(=O)Nc3ccccc3)ccc2O1 | inactive: 0.987
Cc1nccnc1N1CCCCC1.O=S(=O)(O)O | inactive: 1.03
Cc1noc(C)c1NC(=O)Nc1ccc2c(c1)C(=O)N([C@H](C)CO)C[C@H](C)[C@H](CN(C)C(=O)Nc1ccc3c(c1)OCO3)OCCCC[C@@H](C)O2 | inactive: 1
C[C@@H]1CN([C@@H](C)CO)S(=O)(=O)c2ccc(-c3ccccc3F)cc2O[C@@H]1CN(C)Cc1cncnc1 | inactive: 0.934
CC(=O)OC[C@H]1O[C@@](COC(C)=O)(O[C@H]2O[C@H](COC(C)=O)[C@@H](OC(C)=O)[C@H](OC(C)=O)[C@H]2OC(C)=O)[C@@H](OC(C)=O)[C@@H]1OC(C)=O | inactive: 0.979
COc1cccc(NC(=O)N[C@H]2C=C[C@@H](CC(=O)N3CCOCC3)O[C@H]2CO)c1 | inactive: 0.897
CO[C@H]1CN(C)C(=O)c2ccc(NS(C)(=O)=O)cc2OC[C@H](C)N(C(=O)CN(C)C)C[C@H]1C | inactive: 0.998
COCCOC(=O)N1C(=O)[C@@]2(c3cc(C#CC4=CCCCC4)ccc31)[C@H](C(=O)N1CCN(c3ncccn3)CC1)[C@H]1C(=O)O[C@H](c3ccccc3)[C@H](c3ccccc3)N1[C@@H]2c1ccc(O)cc1 | inactive: 1.02
NC(=O)c1ccc[n+](C2OC(COP(=O)([O-])OP(=O)(O)OCC3OC(n4cnc5c(N)ncnc54)C(O)C3O)C(O)C2O)c1 (configuration not stated) | inactive: 1.07
